Reference: PubChem BioAssay AID2101 (National Center for Advancing Translational Sciences (NCATS), 2009)
Out of some 330,000 compounds screened, about 300 (0.091%) were called active. Inconclusive means that the source gave no clear call. Such entries were picked first, then a sample of the others. Calls follow the shape of the dose curve; as a rule, active = well fitted inhibition curve with a large enough effect; inconclusive = small, poorly fitted or top-dose-only effect, or effect the other way, or another doubt; inactive = no such curve, though single readings can be large or run the other way. Potencies of inconclusive entries are left out as doubtful fits.

target: Lysosomal acid glucosylceramidase (Homo sapiens) (UniProt P04062); experiment: qHTS Assay for Inhibitors and Activators of N370S glucocerebrosidase as a Potential Chaperone Treatment of Gaucher Disease; conditions: N370S GC spleen homogenate, 4MU-glucoside fluorescence; series mostly up to 59.4 µM
Potency is read from the fitted curve at half-maximal effect.

Question: Which Potency does the source give for `Cc1ccccc1OCC(=O)N/N=C/c1cccc(Oc2ccc([N+](=O)[O-])cc2[N+](=O)[O-])c1` here?
Answer: inconclusive [activator, partial curve]

Question: With `COc1cc(C(CCN2CCOCC2)c2c(OC)cc(OC)c3c2OC(=O)CC3c2ccc(N(C)C)cc2)cc(OC)c1OC` (stereo not given) as the molecule, how does the Potency read?
Answer: inconclusive [inhibitor, partial curve]

Question: How did the Potency turn out when `O=C(COC(=O)c1ccco1)Nc1cccc(Br)c1` was run?
Answer: inconclusive [inhibitor, partial curve]

Question: With `CCC(C(=O)Nc1ccc(C(=O)O)cc1NC(=O)C(CC)c1ccccc1)c1ccccc1` (stereo not given) as the molecule, how does the Potency read?
Answer: inactive

Question: How did the Potency turn out when `CC1(C)CC(=O)C2=C(C1)NC1=C(C(=O)c3ccccc31)C2c1ccccc1` (stereo not given) was run?
Answer: inconclusive [inhibitor, partial curve]

Question: With `COc1ccc2c(CN(C)c3ccccc3)cc(=O)oc2c1` as the molecule, how does the Potency read?
Answer: inactive

Question: `Cc1ccc(C)c2[nH]c(=O)c(CN(Cc3ccco3)S(=O)(=O)c3ccc4c(c3)OCCO4)cc12` was tested. Which Potency did it give?
Answer: inconclusive [activator, partial curve]

Question: With `COc1ccc(C(CCN2CCOCC2)c2c(OC)cc(OC)c3c(-c4ccccc4)cc(=O)oc23)cc1` (stereo not given) as the molecule, how does the Potency read?
Answer: inconclusive [inhibitor, partial curve]

Question: For `Cc1ccc(NC(=O)CSc2nc(C)c(Cc3ccccc3)c(=O)[nH]2)cc1C`, which Potency is on record?
Answer: inconclusive [activator, partial curve]

Question: For `CO/N=C/C(=N\Nc1ccc(OC)cc1)C(=O)c1ccc(OC)cc1`, which Potency is on record?
Answer: inconclusive [activator, partial curve]

Question: `NCCCn1c(C(=O)c2cc(Cl)c(N)c(Cl)c2)c2ccc([N+](=O)[O-])cc2[n+]1[O-]` was tested. Which Potency did it give?
Answer: inconclusive [inhibitor, partial curve, poor fit]

Question: With `O=S(=O)(Nc1ccc(-c2nc3cccnc3s2)cc1)c1cc(F)ccc1F` as the molecule, how does the Potency read?
Answer: inconclusive [activator, partial curve]

Question: `CCOC(=O)CNC(=O)c1cc2c(=O)[nH]c3ccc(C)cc3c2s1` was tested. Which Potency did it give?
Answer: inconclusive [activator, partial curve]

Question: How did the Potency turn out when `CCCCC(CC)CNC(=O)C(Cc1ccccc1)NS(=O)(=O)c1ccc2c(c1)CCC(=O)N2` (stereo not given) was run?
Answer: inconclusive [inhibitor, partial curve]

Question: With `Oc1c(N=Nc2ccc(F)cc2)ccc2ccccc12` as the molecule, how does the Potency read?
Answer: inactive

Question: How did the Potency turn out when `CCOP(=O)(OCC)c1nc(-c2ccccc2)oc1N1CCCCC1` was run?
Answer: inconclusive [activator, single point]

Question: With `CCOC(=O)c1c(-c2ccc(C)o2)csc1NC(=S)NC(=O)c1cccs1` as the molecule, how does the Potency read?
Answer: inconclusive [activator, partial curve]

Question: How did the Potency turn out when `O=C1c2ccccc2C(=O)N1Cc1cc(Cl)c(O)c([N+](=O)[O-])c1` was run?
Answer: inactive

Question: How did the Potency turn out when `COC(=O)C1=C(C)NC(C)=C(C(=O)OC)C1C(=O)OCC(=O)Nc1ccc(C(C)=O)cc1` was run?
Answer: inconclusive [activator, partial curve]

Question: How did the Potency turn out when `COc1ccc(Cl)cc1NC(=O)CN(C)C(=O)CCC(=O)c1cc(C)sc1C` was run?
Answer: inconclusive [inhibitor, single point]

Question: `O=C(COC(=O)C1C2CC3OC(=O)C1C3C2)Nc1ccccc1` (stereo not given) was tested. Which Potency did it give?
Answer: inconclusive [activator, partial curve]

Question: For `CCOc1cc(/C=N/NC(=O)CSc2nncn2C)ccc1OC(=O)c1ccc(Cl)cc1`, which Potency is on record?
Answer: inconclusive [inhibitor, single point]

Question: With `Cc1cc(C)nc(Nc2cccc(C(F)(F)F)c2)n1` as the molecule, how does the Potency read?
Answer: inactive

Question: How did the Potency turn out when `O=C(NCCN1CCOCC1)c1ccccc1N1C(=O)[C@@H]2Cc3c([nH]c4ccccc34)C(c3ccc(F)cc3)N2C1=O` (stereo not given in full) was run?
Answer: inconclusive [inhibitor, partial curve]

Question: Which Potency does the source give for `CCn1c2ccccc2c2nnc(SCc3ccccc3)nc21` here?
Answer: inconclusive [activator, partial curve]

Question: With `COCCCNC(=O)c1c(N)n(-c2cccc(S(N)(=O)=O)c2)c2nc3ccccc3nc12` as the molecule, how does the Potency read?
Answer: inconclusive [activator, partial curve]

Question: `CCN(CC)S(=O)(=O)c1ccc(N2CCOCC2)c(NC(=O)c2ccc3ccccc3c2)c1` was tested. Which Potency did it give?
Answer: inconclusive [activator, full curve]

Question: For `Cc1sc(C(C2C(=O)CC(C)(C)CC2=O)C2C(=O)CC(C)(C)CC2=O)cc1[N+](=O)[O-]`, which Potency is on record?
Answer: inactive

Question: `Cc1cccc(CS(=O)(=O)c2cn(CC(=O)N3CCOCC3)c3ccccc23)c1` was tested. Which Potency did it give?
Answer: inconclusive [inhibitor, partial curve]

Question: Which Potency does the source give for `O=C(NC1=NCCS1)NC12CC3CC(CC(C3)C1)C2` here?
Answer: inconclusive [inhibitor, partial curve]

Question: `CCOC(=O)CCC(=O)OCC(=O)NC(C)C1CC2CCC1C2` (stereo not given) was tested. Which Potency did it give?
Answer: inconclusive [activator, full curve, poor fit]

Question: With `O=C(Nc1nc2ccc(Cl)cc2s1)c1ccco1` as the molecule, how does the Potency read?
Answer: inactive

Question: For `COc1ccccc1CNc1ccnc(-c2ccc3c(c2)OCO3)n1`, which Potency is on record?
Answer: inconclusive [inhibitor, partial curve]

Question: With `COc1cc(C(=O)c2cocc2C(=O)c2ccc3c(c2)OCO3)cc(OC)c1OC` as the molecule, how does the Potency read?
Answer: inconclusive [activator, single point]

Question: Which Potency does the source give for `CCC(=O)c1ccc2c(c1)OCCO2` here?
Answer: inactive

Question: `CCCCNC(=O)CNC(=S)N(CCCN1CCOCC1)Cc1cccs1` was tested. Which Potency did it give?
Answer: inconclusive [inhibitor, single point]

Question: `Cc1cccc2sc(N(CCCN(C)C)C(=O)c3ccc(S(=O)(=O)N4CCc5ccccc5C4)cc3)nc12` was tested. Which Potency did it give?
Answer: inconclusive [inhibitor, single point]

Question: Which Potency does the source give for `Nc1ccc(-c2nc3ccc(C(=O)O)cc3s2)cc1` here?
Answer: inconclusive [activator, partial curve]

Question: How did the Potency turn out when `CC1CCc2c(sc(NC(=O)c3ccc(Cn4cc([N+](=O)[O-])cn4)o3)c2C#N)C1` (stereo not given) was run?
Answer: inconclusive [activator, partial curve]

Question: Which Potency does the source give for `Cc1ccc(NC(=O)C(OC(=O)c2ccc(F)cc2)c2ccccc2)cc1Cl` (stereo not given) here?
Answer: inconclusive [activator, partial curve]
